Source: article PMC6919601, “Identification of Plasmodium dipeptidyl aminopeptidase allosteric inhibitors by high throughput screening” (PLoS ONE, 2019)
Hit rate of the full screen: of about 110,000 compounds, about 230 (0.21%) showed an effect of 50% or more. Some of the results follow.

Molecular target: DPAP1 (Plasmodium falciparum, UniProt Q8IIJ9)
Assay: primary screen, percent inhibition; read by cleavage of a fluorogenic dipeptide substrate; higher = more effect of the substance
Set-up: species or system P. falciparum D10 trophozoite lysates; single well
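Further: 30 min substrate incubation versus DMSO and 10 µM JCP410 controls.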

DPAP1, sequence (Q8IIJ9 whole entry, looked up): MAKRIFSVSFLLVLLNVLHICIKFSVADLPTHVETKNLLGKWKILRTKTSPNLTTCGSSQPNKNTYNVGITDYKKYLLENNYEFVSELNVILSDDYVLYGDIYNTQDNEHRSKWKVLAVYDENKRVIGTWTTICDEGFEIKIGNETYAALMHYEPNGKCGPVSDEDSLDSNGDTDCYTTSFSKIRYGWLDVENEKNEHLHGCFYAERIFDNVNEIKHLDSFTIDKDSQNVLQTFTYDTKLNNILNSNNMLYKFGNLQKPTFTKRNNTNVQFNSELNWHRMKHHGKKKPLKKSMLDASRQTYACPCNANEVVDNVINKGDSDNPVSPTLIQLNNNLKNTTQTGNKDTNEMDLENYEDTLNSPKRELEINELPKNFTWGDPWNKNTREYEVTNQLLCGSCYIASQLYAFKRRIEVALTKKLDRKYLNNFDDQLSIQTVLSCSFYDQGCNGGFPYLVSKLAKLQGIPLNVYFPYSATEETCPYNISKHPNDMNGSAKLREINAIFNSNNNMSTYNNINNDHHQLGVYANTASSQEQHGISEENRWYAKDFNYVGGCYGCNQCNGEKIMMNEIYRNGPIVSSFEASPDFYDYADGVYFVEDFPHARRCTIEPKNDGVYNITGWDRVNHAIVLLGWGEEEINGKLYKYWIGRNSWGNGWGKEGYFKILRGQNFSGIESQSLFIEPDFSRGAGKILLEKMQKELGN

Row | SMILES | % Inhibition @ 10 uM
1 | O=C1CC(C(=O)NCc2ccccc2)NC(N2CCCCC2)=N1 (stereo not drawn) | 2.5%
2 | COc1ccccc1N1CCN(Cc2cc(Br)c(O)c(OC)c2)CC1 | 4.67%
3 | Cc1ccc2c(c1)C(=O)c1cc3ccccc3nc1CS2 | 6.69%
4 | O=C(Nc1cc(Cl)cc(Cl)c1)c1ccccc1Cl | -1.62%
5 | CC(C)(C)NC(=O)CN(c1cccc2ccccc12)S(C)(=O)=O | -12.5%
6 | CC(C)Cn1cc(NC(=O)N(CCN(C)C)Cc2ccco2)c2ccccc2c1=O | 1.92%
7 | COc1cccc(/C=C2/SC(Nc3ccccc3)=NC2=O)c1O | 3%
8 | Cc1ccc2c(c1)c1c3n2CCN(C(=O)CN2CCN(C(=O)c4ccco4)CC2)C3CCC1 (stereo not drawn) | 2.38%
9 | CCN(Cc1ccccc1)C(=O)CN(C)S(=O)(=O)c1ccc2[nH]c3c(c2c1)CCCC3 | 1.97%
10 | CCCN1CCN(S(=O)(=O)c2ccc3nc(O)ccc3c2)CC1 | -7.67%
11 | CC1CCCCN1C(=O)c1cc(-c2ccccc2O)on1 (stereo not drawn) | 1.82%
12 | COc1cc(/C=N/n2c(C)nnc2-n2nc(C)cc2C)c(Cl)cc1O | 0.561%
13 | COc1ccc(C(=O)Nc2ccc(N3CCCC3)c(Cl)c2)cc1 | -7.99%
14 | O=C(Nc1nnc(CCN2CCCCC2)s1)c1ccc(Br)cc1 | -4.04%
15 | COC(=O)C1=CN(Cc2ccc(OC)cc2)C=C(C(=O)OC)C1c1cccc(OCc2ccccc2)c1 | 3.45%
16 | CC(=O)N[C@H]1[C@H](Oc2ccc3ccccc3c2)O[C@@H]2COC(C)(C)O[C@H]2[C@@H]1O | -1.08%
17 | Cc1cc(C)c(C(=O)/C=C/c2cccc3ccccc23)c(O)n1 | -2.03%
18 | CCN(CC)CCNC(=O)CCc1nc(-c2ccc(C)cc2)no1 | 5.1%
19 | CC(C)=C1C2C=CC1C1C(=O)N(c3ccc(C#N)cc3)C(=O)C21 (stereo not drawn) | 2.38%
20 | COc1ccc(-c2c(C)nn3c(N)c(-c4ccccc4)cnc23)cc1OC | -8.72%
21 | O=C(NCc1ccccc1)c1ccc(C(=O)N(C2CCCCC2)C2CCCCC2)cc1 | 5.64%
22 | COCCN1C(=O)c2oc3ccccc3c(=O)c2C1c1ccc(O)cc1 (stereo not drawn) | -1.11%
23 | O=C1NC2(CCCC2)C(=O)N1CCS(=O)(=O)Oc1ccc(Cl)cc1 | -9.83%
24 | Cc1cccc(NC(=O)c2c(NC(=O)c3cccnc3)sc3c2CCCC3)c1 | -4.05%
25 | Cc1ccc(CS(=O)(=O)c2cn(CC(=O)NCc3ccco3)c3ccccc23)cc1 | -4.33%

Row | SMILES | % Inhibition @ 10 uM
26 | CCCN1CCN(C(=O)C2c3ccccc3C(=O)N(C)C2c2cccs2)CC1 (stereo not drawn) | -1.48%
27 | O[C@]12CCCC[C@@H]1[C@@H](c1ccc(Cl)cc1)NCC2 | 1.66%
28 | Cc1ccc(Cl)c(OCCCCN2CCC(C)CC2)c1 | 2.25%
29 | CCSc1nnc(NC(=O)c2c(C)nn(-c3ccc(C)cc3)c2-n2cccc2)s1 | -6.3%
30 | COc1cc(-c2nc(C(F)(F)F)c(OC)o2)cc(OC)c1OC | 2.01%
31 | O=C(CCn1c(=O)c2cccn2c2cccnc21)NCCc1cccs1 | 7.62%
32 | O=c1c2ccccc2n2c(-c3cc(Cl)ccc3O)nnc2n1Cc1ccccc1 | 1.68%
33 | N#Cc1cc2c(nc1SCC(=O)Nc1cnc3ccccc3c1)CCCCCC2 | 5.17%
34 | COc1ccc(C=C2C(=O)OC(C)(C(C)(C)C)OC2=O)cc1Br (stereo not drawn) | 1.37%
35 | CC(NC(=O)c1ccc(C23CC4CC(CC(C4)C2)C3)cc1)C(=O)O (stereo not drawn) | 11.1%
36 | CCN1C(=O)N/C(=C/c2cc(C)n(-c3ccccn3)c2C)C1=O | 0.413%
37 | CCOC(=O)c1c(C)c(C(=O)NCc2ccc(F)cc2)c(C)n1CC | -3.44%
38 | COc1cc(C(=O)NCCc2csc(-c3cccnc3)n2)cc(OC)c1OC | 0.953%
39 | Cc1[nH]c2ccccc2c1C(=O)CN1CCCC1 | 0.968%
40 | O=C(CN1CCN(CCN2C(=O)c3cccc4cccc(c34)C2=O)CC1)c1ccccc1 | 5.19%
41 | O=C1c2ccccc2C(=O)N1CCC1=NCCc2ccccc21 | -3.16%
42 | CC(C)Cn1cc(NC(=O)NCCc2ccc(Cl)cc2)c2ccccc2c1=O | 1.06%
43 | CC1CCCC(NC(=O)C2CCCCC2C(=O)O)C1C (stereo not drawn) | 6.71%
44 | COc1ccc2[nH]c3c(=O)n(CC(=O)N4CCCC4)c(=S)[nH]c3c2c1 | -0.495%
45 | COCCCNC(=O)C1c2ccccc2C(=O)N2CCc3cc(OC)c(OC)cc3C12 (stereo not drawn) | 2.93%
46 | Cc1ccccc1-c1nnc2s/c(=C\c3cccs3)c(=O)n12 | -3.33%
47 | CC1CN(Cc2ccccc2)c2ccccc2N=C1S (stereo not drawn) | 3.8%
48 | O=C(CSc1cccc2cccnc12)Nc1nnc(-c2ccccc2)s1 | 1.37%
49 | O=C(NC1CCCCC1)N1CCC(N2CCCCC2)CC1 | 4.3%
50 | CCOc1ccccc1C1C(C#N)=C(N)OC2=C1C(=O)CCC2 (stereo not drawn) | -2.46%

Row | SMILES | % Inhibition @ 10 uM
51 | Nc1c(Cl)cnn(-c2ccccc2)c1=O | 0.827%
52 | CC(C)Cn1c(=O)c2ccccc2n2c(CCC(=O)N3CCC(Cc4ccccc4)CC3)nnc12 | 13.9%
53 | O=C1c2ccccc2C(=O)c2cc(OCC(O)CN3CCCCC3)ccc21 (stereo not drawn) | 3.43%
54 | COc1ccc2nc(NC(=O)C3CCCN(S(=O)(=O)c4c(C)noc4C)C3)sc2c1 (stereo not drawn) | 0.708%
55 | O=C(CNC(=O)c1ccccc1C(=O)O)c1ccccc1 | -1.82%
56 | COc1cc(/C=C2/NC(=O)N(c3cccc(Cl)c3)C2=O)c(Br)cc1O | -3.65%
57 | C=CCNC(=O)CN1C(=O)c2ccccc2S1(=O)=O | 1%
58 | COc1ccc(C)cc1N(CC(=O)Nc1cc(C)ccc1C)S(C)(=O)=O | -6.77%
59 | CCOc1ccc(NS(=O)(=O)c2ccc(N)cc2)cc1 | 0.851%
60 | Cc1ccc(NS(=O)(=O)c2ccc([N+](=O)[O-])cc2)c(C)c1 | 17.9%
61 | COc1cccc2c1cc1c(=O)n(CC(=O)NCC3CCCO3)nc(C)n12 (stereo not drawn) | -1.7%
62 | CCC(=O)N1C(C(=O)NCCC(C)C)CSC12CCN(C)CC2 (stereo not drawn) | -4%
63 | CCCCCCNC(=O)C(CC)NS(=O)(=O)c1ccc(C)cc1 (stereo not drawn) | -5.8%
64 | O=C(CCN1C(=O)c2ccccc2C1=O)NC(c1ccccc1)C1CCCC1 (stereo not drawn) | -2.29%
65 | Cc1ccc(NC(=O)COc2cc(C)c(Cl)c(C)c2)c(Br)c1 | 1.35%
66 | CN(C)c1nc2c(N)ncnc2[nH]1 | 3.54%
67 | O=C1OC2(CCCCC2)OC(=O)C1=Cc1cccs1 | -0.85%
68 | COc1ccc(N(CC(=O)Nc2cccc(SC)c2)S(C)(=O)=O)cc1OC | -5.48%
69 | Cc1cc(-c2ccc(C)c(S(=O)(=O)NCCC3=CCCCC3)c2)on1 | -4.9%
70 | CC1=[N+]([O-])C(C)(C)C(c2cccs2)=[N+]1[O-] | -5.28%
71 | Nc1c(C(=O)Nc2ccccn2)sc2nc(-c3cccs3)cc(C(F)(F)F)c12 | -5.07%
72 | Cc1ccc(-c2nn(CCC(=O)NCc3cccnc3)c(=O)c3ccccc23)cc1 | 3.67%
73 | Cc1nc([N+](=O)[O-])cn1CC(=O)C12CC3CC(CC(C3)C1)C2 | 2.65%
74 | O=C(/C=C/c1cccnc1)c1cccc([N+](=O)[O-])c1 | 0.716%
75 | CCOC(=O)C1=C(C)NC(=O)NC1c1ccco1 (stereo not drawn) | 0.962%

Row | SMILES | % Inhibition @ 10 uM
76 | N#CC1=C2SCN(Cc3ccccc3)CN2C(=O)CC1c1ccc(Cl)cc1 (stereo not drawn) | 42.2%
77 | CC1CCN(C2=NC(=O)/C(=C\c3ccccc3Cl)S2)CC1 | 10.2%
78 | COc1cccc(S(=O)(=O)NCc2ccc(C(=O)Nc3ccc(Cl)cc3)cc2)c1 | -1.36%
79 | CC(C)(C)OC(=O)N1CCC(c2c(C(=O)NC3CCCC3)cnn2-c2ccccc2)CC1 | 7.46%
80 | CC1(C)Oc2ccc3ccc(=O)oc3c2C(/C=N/CCc2c[nH]c3ccccc23)=C1O | -5%
81 | Cc1ccccc1C1C(=O)c2ccccc2C1=O | 4.16%
82 | CCOc1ccc(CC(=O)Nc2c(C(C)=O)oc3ccccc23)cc1OCC | 2.15%
83 | COc1ccc(S(=O)(=O)N(CC(=O)Nc2cc(C)ccc2OC)c2ccccc2)cc1 | 0.324%
84 | CCC(=O)NS(=O)(=O)c1ccc(NC(=O)c2ccco2)cc1 | 0.35%
85 | CN(C)c1ccc(/C=C/CN(CCO)Cc2ccccc2)cc1 | -1.41%
86 | COc1ccc(NC(=O)/C=C/c2ccc3c(c2)OCO3)cc1 | -0.351%
87 | CO/C=C(\Oc1ccccc1C)C(=O)Nc1ccccc1Cl | -9.4%
88 | CC(C)CCNCC1OCc2ccccc2CO1 | 0.275%
89 | COc1ccc(NC(=O)CN(c2cccc(C(F)(F)F)c2)S(C)(=O)=O)c(OC)c1 | -10.8%
90 | N#CCc1ccc(NC(=O)COc2cc(Cl)c(Cl)cc2Cl)cc1 | -1.52%
91 | Cc1ccc(CNCc2c(C(=O)O)c(C)n(Cc3ccccc3C)c2C)cc1 | 11.5%
92 | CCOC(=O)c1ccc(S(=O)(=O)N2CCN(c3ncc(C(F)(F)F)cc3Cl)CC2)cc1 | 1.32%
93 | CCN1CCCC1CNC(=O)C1=C(C)C(=O)OC12CCN(C(C)=O)CC2 (stereo not drawn) | 3.62%
94 | CC(C)(C)n1ncc2c(=O)n(Cc3ccc(F)cc3)cnc21 | -5.37%
95 | CCOC(=O)c1c(N)sc(C(=O)N(CC)CC)c1C | 3.76%
96 | N#CCNC(=O)CCCCCN1C(=O)c2ccccc2C1=O | 4.61%
97 | CS(=O)(=O)N(Cc1ccccc1)c1ccccc1C(=O)NC1CC2CCC1C2 (stereo not drawn) | 5.12%
98 | CCc1cc2c(Nc3ccc(Cl)cc3)ncnc2s1 | 2.65%
99 | CCOc1cc(C2C3=C(CC(C)(C)CC3=O)OC3=C2C(=O)CC(C)(C)C3)cc(Cl)c1O | -6.48%
